Laboratory results from the RNAGym collection of RNA variant scans (doi:10.7554/elife.90254).
The source gives no read counts; variants with many changes may rest on few reads.

B1: LINE1-mini (parent)
chain: GGCAGAGCUCAACACAGCGUGGCAAAGUGGCUGUGGCUAGACUGCC

Variants of: B1
Assay: self-cleavage, relative activity (ratio to wild type); higher = more cleavage; in vitro, sequencing; the parent is a self-cleaving ribozyme

| Variant | self-cleavage |
| --- | --- |
| GGCAGAGCUUGACACAGGGUGGCAAAGUGGCUGAGGCUAGACUGCC [C10U A11G C18G U34A] | 0.01 |
| GGCAGAGCUGAACACAGCGUGGCAAAGUGGCCGUGGCUAUACUGCC [C10G U32C G40U] | 0.01 |
| GGCAGAGCUUCACACAGCGUGGCAAAGUAGCUGUGGCUAGACUGCC [C10U A11C G29A] | 0.02 |
| GGCAGAGCUUCACACAGCGUGGCACAGUGGCUGUGGCUAGACUGCC [C10U A11C A25C] | 0.03 |
| GGCAGAGCUUGACACAGCGUGACAAAGUGACUGUUGCUAGACUGCC [C10U A11G G22A G30A G35U] | 0.01 |
| GGCAGAGCUGAACACAGCGUGGCAAAGCCGCUGCAGCUAGACUGCC [C10G U28C G29C U34C G35A] | 0 |
| GGCAGAGCUUGACACAGCGUGGAAAAGUGGCUUUGCCUAGACUGCC [C10U A11G C23A G33U G36C] | 0.02 |
| GGCAGAGCUGAACACAGCGUGGCAAAGUCGCUGUUGACAGACCGCC [C10G G29C G35U C37A U38C U43C] | 0 |
| GGCAGAGCUGAACACAGCGCGGCAAAGUGGCUGUGGCUCGACUGCC [C10G U20C A39C] | 0.01 |
| GGCAGAGCUGAACACAGCGUGGCAAAGUGGCUGAGGCUAGACUGUU [C10G U34A C45U C46U] | 0 |
| GGCAGAGCUGAACACAGCGUGGCAAAGUGGCUGUGGCUACACUCCC [C10G G40C G44C] | 0.02 |
| GGCAGAGCUGAACACAGCGUGGCAAAGUGGCUGUGGCUAUACUGGC [C10G G40U C45G] | 0.01 |
| GGCAGAGCUGAACACAGCGGGGCAAAGUGGCUGUGGCUAUGCUGCC [C10G U20G G40U A41G] | 0.01 |
| GGCAGAGCUGAACACAGCGUGGCAAAGUGGCUGCGGCUAUACUGCC [C10G U34C G40U] | 0.02 |
| GGCAGAGCUGAACACAGCGUGGCAAAGUGGCAGUGGCUGGUCUGCC [C10G U32A A39G A41U] | 0.02 |
| GGCAGAGCUUGACACAGCGUGGCAAAGUGCCUUUGGCUAGACUACC [C10U A11G G30C G33U G44A] | 0.01 |
| GGCAGAGCUUUACACAGCGUGGCAAAGUGGUAGUGGCUAGACUGCU [C10U A11U C31U U32A C46U] | 0.02 |
| GGCAGAGCUGAACACAGCGUGGCAAAGUGACUGUGUCUAGACUGCC [C10G G30A G36U] | 0.02 |
| GGCAGAGCUGAACACAGCGUGGCAAAGUGGCAGUGGCUAUACUGCC [C10G U32A G40U] | 0.02 |

| Variant | self-cleavage |
| --- | --- |
| GGCAGAGCUGAACACAGCGUGGCAAAGUGGCUGGGGCUUAACUGCC [C10G U34G A39U G40A] | 0.02 |
| GGCAGAGCUUCACACAGCGUGGCAAAGUGGCUGUAGCUAGACUGCC [C10U A11C G35A] | 0 |
| GGCAGAGCUUGUCACAGCGUGGCAAAGUGGCUGAGGCUAGACUGCC [C10U A11G A12U U34A] | 0 |
| GGCAGAGCUGAACACAGCGUGGCAAAGUGGCUUUGGCUAUUCUGCC [C10G G33U G40U A41U] | 0.01 |
| GGCAGAGCUGAACACAGCGCGGCAAACUGGCUGUGUCUGGACUGCC [C10G U20C G27C G36U A39G] | 0 |
| GGCAGAGCUGAACACAGCGUGGCAAAGUGGCUGUAGCCAGACUGCC [C10G G35A U38C] | 0.01 |
| GGCAGAGCUGAACACAGCGGGGCAAAGUGGCUGUGGCUCGAGUGCC [C10G U20G A39C C42G] | 0 |
| GGCAGAGCUUCACACAGCGUGGCAAAGUGGCUGUGGCUAGACUUCC [C10U A11C G44U] | 0.01 |
| GGCAGAGCUGAACACAGCGUGGCAAAGUGACUGUUGCUAGACUGCC [C10G G30A G35U] | 0.01 |
| GGCAGAGCUGAACACAGCGUGGCAAAGUGGCUGUGGCCAGACCGCC [C10G U38C U43C] | 0 |
| GGCAGAGCUGAACACAGCGUGGCAAAGAGGCUGUGCCUAGACUGCC [C10G U28A G36C] | 0.02 |
| GGCAGAGCUGAACACAGCGUGGCAAAGUGGCUGAGGCUAGCCUGCC [C10G U34A A41C] | 0.01 |
| GGCAGAGCUUUACACAGCCUGGAAAAGUGGCCGUGGCUAGACUACC [C10U A11U G19C C23A U32C G44A] | 0.01 |
| GGCAGAGCUGAACACAGCGUGGCAAAGUGGCUGCGGCUAGUCUGCC [C10G U34C A41U] | 0.03 |
| GGCAGAGCUUGACACAGCGUUUCAAAGUGGCUGUGGCUAGACUGCC [C10U A11G G21U G22U] | 0.05 |
| GGCAGAGCUGAACACAGCGUGGCAAAGUGGCUGUGGCUAAACUUCC [C10G G40A G44U] | 0.03 |
| GGCAGAGCUGAACACAGCGUGGCAAAGUGGCGGUGGCUAAGCUCCC [C10G U32G G40A A41G G44C] | 0.02 |
| GGCAGAGCUGAACACAGCGUGGCAAAGUGGCUGUGGCUAGACUUCG [C10G G44U C46G] | 0.04 |
| GGCAGAGCUGAACACAGCGCGGUAGAGUGGCUGUGGCUAGACUGCC [C10G U20C C23U A25G] | 0.07 |

| Variant | self-cleavage |
| --- | --- |
| GGCAGAGCUUUUCACAGAGUGGCAAUGUGGCUGUGGCUAGACUGCA [C10U A11U A12U C18A A26U C46A] | 0.02 |
| GGCAGAGCUUGACACAGCGUGUCAAAGUGGCUGUGGCUAGACUGCC [C10U A11G G22U] | 0.04 |
| GGCAGAGCUUGACACAGCGUGGCAAAGUGGCUGUGGCUAGAGUGCC [C10U A11G C42G] | 0 |
| GGCAGAGCUGAACACAGCGUGGCAAAGUAGAUGUGGUAAGACUGCC [C10G G29A C31A C37U U38A] | 0.01 |
| GGCAGAGCUUGACUCAGAGUGGCAAAGUGGAUGUGGCUAGACUGCC [C10U A11G A14U C18A C31A] | 0.02 |
| GGCAGAGCUUUACAUAGCGCGGCAAAGUUGCUUUGGCUAGACUGCC [C10U A11U C15U U20C G29U G33U] | 0.03 |
| GGCAGAGCUGAACACAGCGAGGCAAAGUGGCUGUGGCUACACUGCC [C10G U20A G40C] | 0 |
| GGCAGAGCUGAACACAGCGUGGCAAAGAGACUGUGGCUAGACUGCC [C10G U28A G30A] | 0.08 |
| GGCAGAGCUGAACACAGCGUGGCAAAGUGGCUGUGACUAGACUACC [C10G G36A G44A] | 0.03 |
| GGCAGAGCUUUAUACAUCAUGGCAAAGUGGCUUUGGCUAGACUGCC [C10U A11U C13U G17U G19A G33U] | 0.02 |
| GGCAGAGCUGAACACAGCGUGGCAAAGUGGCUGAGGCUAGACUUCC [C10G U34A G44U] | 0.02 |
| GGCAGAGCUGAACACAGCGUGGCAAAGUAGCUGUGGCAAGAAUGCU [C10G G29A U38A C42A C46U] | 0.01 |
| GGCAGAGCUGAACACAGCGUGGCAAAGUGGCUGUGCCAAGACUGCC [C10G G36C U38A] | 0.02 |
| GGCAGAGCUUUACACAGUGUGGCAAGGUGGCUGUUGCUAGACUGCC [C10U A11U C18U A26G G35U] | 0.03 |
| GGCAGAGCUGAACACAGCGUGGCAAAGUCGCUGUGGCUAGACUGCA [C10G G29C C46A] | 0.03 |
| GGCAGAGCUUCACACAGCGUGGCAAAAUGCCUGUGGCUAGACUGCC [C10U A11C G27A G30C] | 0.06 |
| GGCAGAGCUGAACACAGCGUGGCAAAGUGGCAGUGGCUAGGCUGCC [C10G U32A A41G] | 0 |
| GGCAGAGCUGAACACAGCGCGGCAGAGUGGCUGUGGCUAGACUGCC [C10G U20C A25G] | 0.02 |
